Test results as given in patent US6500866B1, “1-(adamantyl)amidines and their use in the treatment of conditions generally associated with abnormalities in glutamatergic transmission” (Vernalis Research Limited, priority 1997, dated 2002).
Structures can show the parent of a compound that is named as a salt. At least one structure is not confirmed: it was looked up by name or label, or the drawing left a doubt.

Key:
[1] = biological target: PCP site of the NMDA receptor (cortical); experiment: [3H]-MK-801 binding, PCP site of NMDA receptor, rat cortical membranes; settings: rat cortex membranes, [3H]-MK-801 5 nM, 10 μM glutamate, 10 μM glycine
Description: (§1) The NMDA receptor contains several distinct binding domains that can regulate opening of the cationic channel. The phencyclidine (PCP) site of the NMDA receptor can be radiolabeled with [^3H]-(+)-5-methyl-10,11-dihydro-5H-dibenzo[a,d]cyclohepten-5,10-imine hydrogen maleate, [^3H-MK-801]. The following describes the procedure for determining the affinity of compounds for the PCP site in rat cortical or cerebellar membranes.
(§2) Frozen rat cortex or cerebellum, homogenized in 10 volumes of ice cold 0.32 M. sucrose is centrifuged at 1,000 g for 12 min and the supernatant stored on ice whilst the pellet was resuspended, rehomogenized and recentrifuged twice more. The three final supernatants were pooled and centrifuged at 30,000 g for 40 min at 4° C. to yield P2 pellets. These were resuspended in ice-cold distilled water, and centrifuged at 30,000 g for 50 min at 4° C. Following three further washes in distilled water, the P2 pellets were stored at −20° C. for at least 18 h. On the day of the assay, membrane pellets were thawed at room temperature, resuspended in ice-cold distilled water and centrifuged at 30,000 g for 20 min. The pellets were resuspended in 50 mM tris-HCl (pH:7.4) and recentrifuged twice more before being resuspended in tris-HCl for immediate use in the assay. Binding assays were performed at equilibrium in a total volume of 200 μl, containing, [^3H]-MK-801 (5 nM final conc.), 10 μM glutamate, 10 μM glycine, 160 μl of membrane preparation and additional drugs where appropriate. Non-specific binding was determined using MK-801 (10 μM). The assay was incubated for 120 min at room temperature. The incubation was terminated by rapid filtration through Whatman GF/B filters (pre-soaked in 0.1% PEI solution). The assay tubes and filters were washed five times with 1 ml of ice cold assay buffer. The filters were placed in poly-Q mini vials with approximately 5 ml of scintillation fluid. The vials are then shaken and left for at least 8 hours before being counted on a liquid scintillation counter. To determine the free ligand concentration 3 aliquots (20 μl) of the [^3H]-MK-801 working solution were also counted. Concentration response data for drugs was analysed using a 4 parameter equation fitted by non linear regression. This yielded the half maximally effective drug concentration (IC50) and Hill coefficient.

[2] = biological target: T1, PCP site of the NMDA receptor (cerebellar); experiment: [3H]-MK-801 binding, PCP site of NMDA receptor, rat cerebellar membranes; settings: rat cerebellum membranes, [3H]-MK-801 5 nM, 10 μM glutamate, 10 μM glycine
T1 construct: IC50(μM) Cerebellum; other: rat cerebellum membranes, [3H]-MK-801 5 nM, 10 μM glutamate, 10 μM glycine
Description: as §1, §2

[3] = test system: PCP site of the NMDA receptor (cerebellar); experiment: as above; settings: IC50 cortex / IC50 cerebellum
Description: as §1, §2

Structure (SMILES)	IC50 [1] [µM]	IC50 [2] [µM]	Ratio of cortical to cerebellar binding affinity [3]
CC12CC3CC(C)(C1)CC(C(=N)N)(C3)C2 [Example 1, 3,5-Dimethyl-1-adamantanecarboximidamide hydrochloride]	28	6	4.7
N=C(N)C12CC3CC(CC(Cl)(C3)C1)C2 [Example 2, 3-Chloro-1-adamantanecarboximidamide hydrochloride]	291	–	–
N=C(N)C12CC3CC(CC(Br)(C3)C1)C2 [Example 3, 3-Bromo-1-adamantanecarboximidamide hydrochloride]	188	105	1.8
CCC12CC3CC(C1)CC(C(=N)N)(C3)C2 [Example 4, 3-Ethyl-1-adamantanecarboximidamide hydrochloride]	122	56	2.2
C=CCNC(=N)C12CC3CC(C)(CC(C)(C3)C1)C2 [Example 6, N-Allyl-3,5-dimethyl-1-adamantanecarboximidamide hydrochloride]	31	–	–
C=CCNC(=N)C12CC3CC(CC(C3)C1)C2 [Example 7, N-Allyl-1-adamantanecarboximidamide hydrochloride]	698	297	2.4
N=C(NCc1ccccc1)C12CC3CC(CC(C3)C1)C2 [Example 9, N-Benzyl-1-adamantanecarboximidamide hydrochloride]	754	388	1.9
CC12CC3CC(C)(C1)CC(CCC(=N)N)(C3)C2 [Example 11, 3-(3,5-Dimethyl-1-adamantyl)propanimidamide hydrochloride]	78	48	1.6
CCC(C(=N)N)C12CC3CC(CC(C3)C1)C2 (stereo not drawn) [Example 15, 2-(1-Adamantyl)butanimidamide hydrochloride]	144	46	3.1
N=C(N)C(CC12CC3CC(CC(C3)C1)C2)c1ccccc1 (stereo not drawn) [Example 17, 3-(1-Adamantyl)-2-phenylpropanimidamide hydrochloride]	16	–	–
